Assay results reported in article PMC7819943, “Rice protein-binding microarrays: a tool to detect cis-acting elements near promoter regions in rice”.
This is one part of the list.

These sequences were tested against T1, OsWOX13 (Oryza sativa, UniProt Q5QMM3 1-267) (assay: protein-binding microarray (RPBM); PBS, 2% BSA, 51.3 ng/ul salmon testes DNA, 50 uM zinc acetate, 200 nM TF, 25 C, 1 h; high values mean tight binding). Details: protein: recombinant; tags: N-terminal polyhistidine and DsRed monomer fusion (pET32a); label: CyDye5-dUTP incorporated in the synthesized complementary strand; 3' TTTTT single-stranded linker to array surface; dsDNA, one strand shown.
T1 sequence: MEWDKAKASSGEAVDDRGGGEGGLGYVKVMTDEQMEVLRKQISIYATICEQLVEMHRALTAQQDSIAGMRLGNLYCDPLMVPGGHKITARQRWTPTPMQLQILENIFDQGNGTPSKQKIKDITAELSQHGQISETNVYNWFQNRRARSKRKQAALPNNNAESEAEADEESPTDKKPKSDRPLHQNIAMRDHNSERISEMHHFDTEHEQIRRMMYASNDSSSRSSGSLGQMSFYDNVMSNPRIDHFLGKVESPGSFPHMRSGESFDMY
Procedure, shortened: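 Transcription factors were made in E. coli BL21-CodonPlus as N-terminal fusions to a polyhistidine tag and DsRed, then purified on Ni–NTA. After primer extension with Cy5-dUTP and blocking with 2% BSA, a custom Agilent array was exposed for 1 h at 25 °C to 200 nM protein in PBS, 2% BSA, salmon testes DNA and 50 µM zinc acetate. Washed arrays were scanned on an Axon 4000B, and the binding signal is per-feature fluorescence intensity in arbitrary units.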

Which binding signal does the source give for “AGGTTTGATTAGTTAGAGACAGGAATCTGCTAACTTCGATCGGAGTCACCTAGTGCAG” here?
The binding signal was 31600 fluorescence intensity (a.u.).

With “AGCAATGTTGATTGTTTGAGACTGAGTTGAGATGTGGTATCGGAGTCACCTAGTGCAG” as the sequence, how does the binding signal read?
The binding signal was 22300 fluorescence intensity (a.u.).

How did the binding signal turn out when “TATTAGATTGGCTATAGATGAATTGGAGCTAGTAGTTGGCCGGAGTCACCTAGTGCAG” was run?
Its binding signal is 46700 fluorescence intensity (a.u.).

For “TTACTACTCCGAATCAATCAATTACCCAGGAATTCAGGAACGGAGTCACCTAGTGCAG”, which binding signal is on record?
Its binding signal is 18800 fluorescence intensity (a.u.).

How did the binding signal turn out when “AAAACTAATTGTACAGTTTGTATGGAAAAGCATGGGACGACGGAGTCACCTAGTGCAG” was run?
The binding signal was 9770 fluorescence intensity (a.u.).

For “TTGTCCAAAATGTCAATTATTATAAAACCGGAGAGAGTACCGGAGTCACCTAGTGCAG”, which binding signal is on record?
The binding signal was 10100 fluorescence intensity (a.u.).

How did the binding signal turn out when “GAAATTTTAATTCTGAGAGAAAATTGAGCTGTCCGAAACCCGGAGTCACCTAGTGCAG” was run?
Its binding signal is 3660 fluorescence intensity (a.u.).

For “TGATTTGGCTGATTAGATGCAATTTAGTCCTGCCACTGTGCGGAGTCACCTAGTGCAG”, which binding signal is on record?
The binding signal was 16900 fluorescence intensity (a.u.).

How did the binding signal turn out when “ATAAATAATCATGCATATATTTCTCTATAGATAGAACCTTCGGAGTCACCTAGTGCAG” was run?
The binding signal was 6160 fluorescence intensity (a.u.).

With “GCGGTGGCGGCGGCGGAGGCGGAGGCGGAGGCGGTGTTGACGGAGTCACCTAGTGCAG” as the sequence, how does the binding signal read?
The binding signal was 3420 fluorescence intensity (a.u.).

How did the binding signal turn out when “GTTAATCGAGAATTGTGACGTTACACGGATGCATGATTAGCGGAGTCACCTAGTGCAG” was run?
The binding signal was 4410 fluorescence intensity (a.u.).

For “AGCCTAATTACGCCATGATTTGACAATGTGGTGCTACAGTCGGAGTCACCTAGTGCAG”, which binding signal is on record?
The binding signal was 58300 fluorescence intensity (a.u.).

For “TGTTGTTAGATGATAAAACATGATTAATATTTTATGCGTGCGGAGTCACCTAGTGCAG”, which binding signal is on record?
The binding signal was 3610 fluorescence intensity (a.u.).

“AATAAATCTATAATTTTATGATATTATGACTTAAATCTATCGGAGTCACCTAGTGCAG” was tested. Which binding signal did it give?
The binding signal was 4790 fluorescence intensity (a.u.).

With “GGCTATAACATTAACTATAGATGATTTAGAGCCAGTGTCTCGGAGTCACCTAGTGCAG” as the sequence, how does the binding signal read?
The binding signal was 9850 fluorescence intensity (a.u.).

“TGTGATTGCAAGACGTTGCTATTAAGAATTTACATTCCTCCGGAGTCACCTAGTGCAG” was tested. Which binding signal did it give?
Its binding signal is 35800 fluorescence intensity (a.u.).

For “GTCCCAGTTCCACTTGATTTATAGTACCATTATAGCCTGACGGAGTCACCTAGTGCAG”, which binding signal is on record?
Its binding signal is 3500 fluorescence intensity (a.u.).

How did the binding signal turn out when “ACCACTGAAAGAATAATTAGCCGTAAATGCGAGCACCCGTCGGAGTCACCTAGTGCAG” was run?
Its binding signal is 5480 fluorescence intensity (a.u.).

For “TGGTGATTATTTTACGGGTTTCGTTGAATAGCTCTCTTTGCGGAGTCACCTAGTGCAG”, which binding signal is on record?
The binding signal was 31800 fluorescence intensity (a.u.).

“CGTGAGTGAAATTTTAATTACGTGTACATATAGGGGAGTACGGAGTCACCTAGTGCAG” was tested. Which binding signal did it give?
The binding signal was 20500 fluorescence intensity (a.u.).

With “ATATATATATATATATATATGTATCTATATATGTATATATCGGAGTCACCTAGTGCAG” as the sequence, how does the binding signal read?
Its binding signal is 5960 fluorescence intensity (a.u.).

With “GCTCATTCAATTCCTCACTTGATCCATCCATCCATCTATCCGGAGTCACCTAGTGCAG” as the sequence, how does the binding signal read?
The binding signal was 3580 fluorescence intensity (a.u.).

“GTGTGATTTAGGCATAGGGCTGACCATGACCCTTTACGACCGGAGTCACCTAGTGCAG” was tested. Which binding signal did it give?
The binding signal was 7270 fluorescence intensity (a.u.).

With “TTGAATGGGATATGATTGATGGGACAAGTAGTATTTAGGACGGAGTCACCTAGTGCAG” as the sequence, how does the binding signal read?
Its binding signal is 40900 fluorescence intensity (a.u.).

Which binding signal does the source give for “GATGTTGATTAGGATGTGACGTGCATACGTGTAGTAGGGTCGGAGTCACCTAGTGCAG” here?
The binding signal was 49400 fluorescence intensity (a.u.).

For “ATACGTTGAATTTAAATTTGCATGTTTGTGAAGTGACGTACGGAGTCACCTAGTGCAG”, which binding signal is on record?
The binding signal was 5300 fluorescence intensity (a.u.).

With “TTTAATTATTTGATATTAGGTTATTCCTTACTATTCGCGTCGGAGTCACCTAGTGCAG” as the sequence, how does the binding signal read?
Its binding signal is 27400 fluorescence intensity (a.u.).

“TCTTCGTTGTCTCCCTCGCTATCACTGTCATATTCCCATCCGGAGTCACCTAGTGCAG” was tested. Which binding signal did it give?
The binding signal was 3840 fluorescence intensity (a.u.).

With “TGCTAATTTATTCATTAATCGTGCGAGTCTGCTAATCGGTCGGAGTCACCTAGTGCAG” as the sequence, how does the binding signal read?
Its binding signal is 40000 fluorescence intensity (a.u.).

With “GCATATCTTAAAATTAATTACTCTGTTTGTTGGATGTAAGCGGAGTCACCTAGTGCAG” as the sequence, how does the binding signal read?
Its binding signal is 6100 fluorescence intensity (a.u.).

Which binding signal does the source give for “GTTGACTATTAATACAATATTTTGCAGACTGGATACCTTGCGGAGTCACCTAGTGCAG” here?
The binding signal was 3340 fluorescence intensity (a.u.).

With “TAAATGCAATGATTAAATTCTGGGAAAAGGCTGCCGAATACGGAGTCACCTAGTGCAG” as the sequence, how does the binding signal read?
The binding signal was 3400 fluorescence intensity (a.u.).

Which binding signal does the source give for “ACAGATAGATGCACAATTGCGTGACAGTCCATTGTATTCACGGAGTCACCTAGTGCAG” here?
Its binding signal is 5420 fluorescence intensity (a.u.).

With “GGGTGCCGCGGGCGGCTAGAGGGCGCCTCTGCGTGGGTGACGGAGTCACCTAGTGCAG” as the sequence, how does the binding signal read?
The binding signal was 3530 fluorescence intensity (a.u.).

With “CATATGACCAGTTTAACTGCCATCATGCAGACACACAGGACGGAGTCACCTAGTGCAG” as the sequence, how does the binding signal read?
Its binding signal is 3410 fluorescence intensity (a.u.).

How did the binding signal turn out when “AATAGCTAAAACTTAATTAATCACGCACTGAAACGCGGCTCGGAGTCACCTAGTGCAG” was run?
Its binding signal is 4280 fluorescence intensity (a.u.).

How did the binding signal turn out when “GTTACAATGTAATTACATGTAAGTTACAGTGTAGTTATTCCGGAGTCACCTAGTGCAG” was run?
The binding signal was 10200 fluorescence intensity (a.u.).

How did the binding signal turn out when “TTATATTAGATTTGTATAGCCTAGATATCTATTCTATCTGCGGAGTCACCTAGTGCAG” was run?
The binding signal was 5860 fluorescence intensity (a.u.).

Which binding signal does the source give for “CCCGTAAATTTGCGAGCGGGCCATCCCGTATGGACCTTGCCGGAGTCACCTAGTGCAG” here?
The binding signal was 3780 fluorescence intensity (a.u.).

With “GGATAACTTCTGATGATGAATTGTTTGTCTAATTTATCTCCGGAGTCACCTAGTGCAG” as the sequence, how does the binding signal read?
The binding signal was 13000 fluorescence intensity (a.u.).

Which binding signal does the source give for “ATTAATCATACGCTAATGACTCATCTTATTTTACGTATCTCGGAGTCACCTAGTGCAG” here?
The binding signal was 9100 fluorescence intensity (a.u.).

“TTTGATCTAATTAGTTGAGTTTGTTGGGTTAATCACTTACCGGAGTCACCTAGTGCAG” was tested. Which binding signal did it give?
The binding signal was 28700 fluorescence intensity (a.u.).
